Results reported in patent US11542275B2, “Substituted imidazolidin-2-one derivatives as PRMT5 inhibitors” (Aurigene Discovery Technologies Limited, priority 2018, dated 2023).

These molecules were tested on Z138 cells (assay: Z138 cell proliferation assay (XTT)). Settings: Homo sapiens, Z-138, 168 h, 7 day treatment, 9-point dose response starting with 10 μM, XTT read at 465 nm.
Format: cell-based
Procedure: Z138 cells were seeded in a 96-well round-bottom plate and treated with varying concentration of compound. The final DMSO concentration was maintained at 0.05%. The selected compounds of present invention were screened in a 9-point dose response format starting with 10 μM and 1/3rd serial dilution. On the 4th day, cells were spun down and media was replaced while maintaining the initial compound concentration in each well. At the end of the 7th day, cells were spun down and media was aspirated. 50 µL of XTT containing media was added to the wells. The plates were read using the M3 spectrophotometer at 465 nm. GI50 values were calculated by fitting the dose response data to sigmoidal curve fitting equation using GraphPad Prism software V7.
The compounds were screened in the above mentioned assay procedures for determining IC50 and GI50 values in inhibiting PRMT5.
In the case of `CC(C)(C(=O)O)C1CCN(c2ccc(CN3CCN(C[C@H](O)CN4CCc5ccccc5C4)C3=O)nc2)CC1` [Compound 14, (R)-2-(1-(6-((3-(3-(3,4-dihydroisoquinolin-2(1H)-yl)-2-hydroxypropyl)-2-oxoimidazolidin-1-yl)methyl)pyridin-3-yl)piperidin-4-yl)-2-methylpropanoic acid], the GI50 is reported as > 300 nM.
`O=C1N(Cc2ccc(-c3ccnc(O)c3)cn2)CCN1C[C@H](O)CN1CCc2ccccc2C1` [Compound 56, (R)-1-(3-(3,4-dihydroisoquinolin-2(1H)-yl)-2-hydroxypropyl)-3-((2′-hydroxy-[3,4′-bipyridin]-6-yl)methyl)imidazolidin-2-one] was tested, and the GI50 was < 100 nM.
In the case of `CS(=O)(=O)N1CCC(c2ccc(CN3CCN(C[C@H](O)CN4CCc5ccccc5C4)C3=O)nc2)CC1` [Compound 43, (R)-1-(3-(3,4-dihydroisoquinolin-2(1H)-yl)-2-hydroxypropyl)-3-((5-(1-(methylsulfonyl)piperidin-4-yl)pyridin-2-yl)methyl)imidazolidin-2-one], the GI50 is reported as < 100 nM.
With `O=C1N(Cc2cnc(N3C4CCC3COC4)cn2)CCN1C[C@H](O)CN1CCc2ccccc2C1` [Compound 24, 1-((5-(3-oxa-8-azabicyclo[3.2.1]octan-8-yl)pyrazin-2-yl)methyl)-3-((R)-3-(3,4-dihydroisoquinolin-2(1H)-yl)-2-hydroxypropyl)imidazolidin-2-one] the GI50 was > 300 nM.
In the case of `O=C1N(Cc2ccc(C3CCN(Cc4nn[nH]n4)CC3)cn2)CCN1C[C@H](O)CN1CCc2ccccc2C1` [Compound 99, (R)-1-((5-(1-((2H-tetrazol-5-yl)methyl)piperidin-4-yl)pyridin-2-yl)methyl)-3-(3-(3,4-dihydroisoquinolin-2(1H)-yl)-2-hydroxypropyl)imidazolidin-2-one], the GI50 is reported as > 300 nM.
In the case of `O=C(C1CC1)N1CCC(c2cnc(CN3CCN(C[C@H](O)CN4CCc5ccccc5C4)C3=O)cn2)CC1` [Compound 41, (R)-1-((5-(1-(cyclopropanecarbonyl)piperidin-4-yl)pyrazin-2-yl)methyl)-3-(3-(3,4-dihydroisoquinolin-2(1H)-yl)-2-hydroxypropyl)imidazolidin-2-one], the GI50 is reported as < 100 nM.
`O=C(c1ncc(-c2ccc(CN3CCN(C[C@H](O)CN4CCc5ccccc5C4)C3=O)nc2)cn1)N1CCCC1` [Compound 102, (R)-1-(3-(3,4-dihydroisoquinolin-2(1H)-yl)-2-hydroxypropyl)-3-((5-(2-(pyrrolidine-1-carbonyl)pyrimidin-5-yl)pyridin-2-yl)methyl)imidazolidin-2-one] was tested, and the GI50 was < 100 nM.
`O=C1N(Cc2ccc(C3CCOCC3)cn2)CCN1C[C@H](O)CNC1Cc2ccccc2C1` [Compound 89, (R)-1-(3-((2,3-dihydro-1H-inden-2-yl)amino)-2-hydroxypropyl)-3-((5-(tetrahydro-2H-pyran-4-yl)pyridin-2-yl)methyl)imidazolidin-2-one] gave a GI50 of 100 to 300 nM.
In the case of `O=C1N(Cc2ccc(N3CCOCC3)cn2)CCN1C[C@H](O)CN1CCc2ccccc2C1` [Compound 4, (R)-1-(3-(3,4-dihydroisoquinolin-2(1H)-yl)-2-hydroxypropyl)-3-((5-morpholinopyridin-2-yl)methyl)imidazolidin-2-one], the GI50 is reported as 100 to 300 nM.
With `O=C1N(Cc2ncc(N3C4CCC3COC4)cc2F)CCN1C[C@H](O)CN1CCc2ccccc2C1` [Compound 30, 1-((5-(3-oxa-8-azabicyclo[3.2.1]octan-8-yl)-3-fluoropyridin-2-yl)methyl)-3-((R)-3-(3,4-dihydroisoquinolin-2(1H)-yl)-2-hydroxypropyl)imidazolidin-2-one] the GI50 was < 100 nM.
In the case of `O=C1N(Cc2ccc(N3CC4(COC4)C3)cn2)CCN1C[C@H](O)CN1CCc2ccccc2C1` [Compound 5, (R)-1-((5-(2-oxa-6-azaspiro[3.3]heptan-6-yl)pyridin-2-yl)methyl)-3-(3-(3,4-dihydroisoquinolin-2(1H)-yl)-2-hydroxypropyl)imidazolidin-2-one], the GI50 is reported as > 300 nM.
`N#Cc1ncc(-c2ccnc(CN3CCN(C[C@H](O)CN4CCc5ccccc5C4)C3=O)c2)cn1` [Compound 54, (R)-5-(2-((3-(3-(3,4-dihydroisoquinolin-2(1H)-yl)-2-hydroxypropyl)-2-oxoimidazolidin-1-yl)methyl)pyridin-4-yl)pyrimidine-2-carbonitrile] was tested, and the GI50 was > 300 nM.
For `CC(=O)N1CCC(c2cnc(CN3CCN(C[C@H](O)CN4CCc5ccccc5C4)C3=O)cn2)CC1` [Compound 34, (R)-1-((5-(1-acetylpiperidin-4-yl)pyrazin-2-yl)methyl)-3-(3-(3,4-dihydroisoquinolin-2(1H)-yl)-2-hydroxypropyl)imidazolidin-2-one], the GI50 was < 100 nM.
With `CC(=O)N1CCC(c2ccc(CN3CCN(C[C@H](O)CN4CCc5ccccc5C4)C3=O)nn2)CC1` [Compound 38, (R)-1-((6-(1-acetylpiperidin-4-yl)pyridazin-3-yl)methyl)-3-(3-(3,4-dihydroisoquinolin-2(1H)-yl)-2-hydroxypropyl)imidazolidin-2-one] the GI50 was < 100 nM.
In the case of `N#CC1CCN(c2ccc(CN3CCN(C[C@H](O)CN4CCc5ccccc5C4)C3=O)nc2)CC1` [Compound 9, (R)-1-(6-((3-(3-(3,4-dihydroisoquinolin-2(1H)-yl)-2-hydroxypropyl)-2-oxoimidazolidin-1-yl)methyl)pyridin-3-yl)piperidine-4-carbonitrile], the GI50 is reported as < 100 nM.
With `COc1cc(-c2ccc(CN3CCN(C[C@H](O)CN4CCc5ccccc5C4)C3=O)cn2)ccn1` [Compound 58, (R)-1-(3-(3,4-dihydroisoquinolin-2(1H)-yl)-2-hydroxypropyl)-3-((2′-methoxy-[2,4′-bipyridin]-5-yl)methyl)imidazolidin-2-one] the GI50 was < 100 nM.
With `CCC(=O)N1CCC(c2ccc(CN3CCN(C[C@H](O)CN4CCc5ccccc5C4)C3=O)nc2)CC1` [Compound 44, (R)-1-(3-(3,4-dihydroisoquinolin-2(1H)-yl)-2-hydroxypropyl)-3-((5-(1-propionylpiperidin-4-yl)pyridin-2-yl)methyl)imidazolidin-2-one] the GI50 was < 100 nM.
With `CC(=O)N1CCN(c2ccc(CN3CCN(CC(O)CN4Cc5ccccc5C4)C3=O)nc2)CC1` (stereo not drawn) [Compound 84, 1-((5-(4-acetylpiperazin-1-yl)pyridin-2-yl)methyl)-3-(2-hydroxy-3-(isoindolin-2-yl)propyl)imidazolidin-2-one] the GI50 was > 300 nM.
For `CN(C)C(=O)C1CCN(c2ccc(CN3CCN(C[C@H](O)CN4CCc5ccccc5C4)C3=O)nc2)CC1` [Compound 97, (R)-1-(6-((3-(3-(3,4-dihydroisoquinolin-2(1H)-yl)-2-hydroxypropyl)-2-oxoimidazolidin-1-yl)methyl)pyridin-3-yl)-N,N-dimethylpiperidine-4-carboxamide], the GI50 was < 100 nM.
For `CC(=O)N1CCC(c2ccc(CN3CCN(C[C@H](O)CN4CCc5ccccc5C4)C3=O)nc2)CC1` [Compound 33, (R)-1-((5-(1-acetylpiperidin-4-yl)pyridin-2-yl)methyl)-3-(3-(3,4-dihydroisoquinolin-2(1H)-yl)-2-hydroxypropyl)imidazolidin-2-one], the GI50 was < 100 nM.
In the case of `O=C1N(Cc2ccc(N3C4CCC3COC4)cn2)CCN1CC(O)CNC1Cc2ccccc2C1` (stereo not drawn) [Compound 86, 1-((5-(3-oxa-8-azabicyclo[3.2.1]octan-8-yl)pyridin-2-yl)methyl)-3-(3-((2,3-dihydro-1H-inden-2-yl)amino)-2-hydroxypropyl)imidazolidin-2-one], the GI50 is reported as > 300 nM.
